Test results taken from the supplement of paper PMC4604168 (melanoma cell lines).
The other results are listed elsewhere or left out. Single values are uncertain, as repeats are few or missing.

Columns and labels:
Assay in all cases: cell count relative to DMSO control; melanoma cells; higher = more viable cells
Conditions in all cases: library dose: low library concentration; 72 h
WM115 = test system: WM115
WM1716 = test system: WM1716
WM1745 = test system: WM1745
WM3526 = test system: WM3526
WM3619 = test system: WM3619
WM451Lu = test system: WM451Lu
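Also: cell number obtained by counting DAPI-stained nuclei in high-throughput microscope images with image analysis software, screen run in 1,536-well plates.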

| SMILES | cell count (WM115) [%] | cell count (WM1716) [%] | cell count (WM1745) [%] | cell count (WM3526) [%] | cell count (WM3619) [%] | cell count (WM451Lu) [%] |
| --- | --- | --- | --- | --- | --- | --- |
| CN(NC(=O)CC(=O)NN(C)C(=S)c1ccccc1)C(=S)c1ccccc1 + Cn1cc(/C=C2\C(=O)Nc3cccnc32)c2ccccc21 [GW441756] (first compound 0.006 µM, partner dose 0.4 µM) | 78.3 | 82.4 | 31.6 | 104 | 58.5 | 119 |
| NC(=O)c1ccc(N(C(N)=O)c2c(F)cccc2F)nc1-c1ccc(F)cc1F + O=C(CCCCCCC(=O)Nc1ccccc1)NO [vorinostat] (first compound 0.4 µM, partner dose 0.08 µM) | 112 | 96.9 | 111 | 93.4 | 114 | 54.7 |
| NC(=O)c1ccc(N(C(N)=O)c2c(F)cccc2F)nc1-c1ccc(F)cc1F + CCN(CC)CCCCNc1ncc2cc(-c3cc(OC)cc(OC)c3)c(NC(=O)NC(C)(C)C)nc2n1 [PD173074] (first compound 0.4 µM, partner dose 0.1 µM) | 106 | 107 | 90.9 | 108 | 138 | 97.4 |
| Cc1ccc(NC(=O)c2cccc(N(C)C)c2)cc1NC(=O)c1ccc(O)cc1 + Cc1cc([N+](=O)[O-])ccc1NS(=O)(=O)c1cc(Cl)ccc1Cl [FH535] (first compound 2 µM, partner dose 1 µM) | 79.3 | 118 | 112 | 95.8 | 91.2 | 105 |
| CCCCCCCCc1ccc(CCC(N)(CO)CO)cc1 [fingolimod] + Cn1cncc1[C@@](N)(c1ccc(Cl)cc1)c1ccc2c(c1)c(-c1cccc(Cl)c1)cc(=O)n2C [tipifarnib] (first compound 2 µM, partner dose 0.01 µM) | 90.9 | 67.1 | 102 | 81.1 | 99.8 | 84.8 |
